According to article PMC4336329 (PLoS ONE, 2015):
Among all 310,000 compounds or so, about 2,200 (0.71%) showed an effect of 50% or more. The effect is printed as a negative number. The list shows a part of the results.

Biological target: human ether-à-go-go-related gene (hERG) potassium channel (human, UniProt Q12809)
Test: primary screen, population patch clamp on CHO cells stably expressing hERG

human ether-à-go-go-related gene (hERG) potassium channel, sequence (Q12809 whole entry, looked up): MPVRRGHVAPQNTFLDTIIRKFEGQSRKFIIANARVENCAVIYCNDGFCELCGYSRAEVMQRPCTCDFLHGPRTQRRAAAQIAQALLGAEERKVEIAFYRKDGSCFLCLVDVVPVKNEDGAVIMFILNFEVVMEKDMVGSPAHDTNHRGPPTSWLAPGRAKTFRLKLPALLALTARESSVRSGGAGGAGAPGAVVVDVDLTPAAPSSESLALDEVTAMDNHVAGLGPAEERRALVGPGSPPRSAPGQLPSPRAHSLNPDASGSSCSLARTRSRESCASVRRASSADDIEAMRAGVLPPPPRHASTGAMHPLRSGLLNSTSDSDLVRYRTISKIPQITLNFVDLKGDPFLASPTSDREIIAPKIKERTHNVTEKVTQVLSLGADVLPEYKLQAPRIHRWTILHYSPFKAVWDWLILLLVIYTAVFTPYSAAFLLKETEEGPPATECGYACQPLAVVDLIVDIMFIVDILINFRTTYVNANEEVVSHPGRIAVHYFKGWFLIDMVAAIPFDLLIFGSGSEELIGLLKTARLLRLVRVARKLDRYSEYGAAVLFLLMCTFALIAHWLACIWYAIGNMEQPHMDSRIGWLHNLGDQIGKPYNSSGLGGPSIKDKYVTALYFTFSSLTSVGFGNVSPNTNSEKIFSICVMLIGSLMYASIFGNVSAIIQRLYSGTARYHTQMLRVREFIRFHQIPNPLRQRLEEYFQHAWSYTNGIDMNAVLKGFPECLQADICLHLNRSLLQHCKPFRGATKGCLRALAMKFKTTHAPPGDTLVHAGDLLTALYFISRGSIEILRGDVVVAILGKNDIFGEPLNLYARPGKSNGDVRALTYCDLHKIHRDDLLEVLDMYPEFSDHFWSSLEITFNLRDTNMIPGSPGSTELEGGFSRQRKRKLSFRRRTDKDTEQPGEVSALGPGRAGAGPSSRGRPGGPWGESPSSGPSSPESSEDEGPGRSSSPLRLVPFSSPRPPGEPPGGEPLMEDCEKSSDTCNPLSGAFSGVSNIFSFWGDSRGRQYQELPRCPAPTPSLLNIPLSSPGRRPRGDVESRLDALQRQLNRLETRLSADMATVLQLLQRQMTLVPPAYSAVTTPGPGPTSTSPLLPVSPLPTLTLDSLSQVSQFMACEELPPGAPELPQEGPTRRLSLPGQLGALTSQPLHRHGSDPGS

| SMILES | hERG current change (%, negative = inhibition) at 1uM [%] |
| --- | --- |
| CCC(=O)NC(Nc1nc2ccc(C)cc2s1)(C(=O)OC)C(F)(F)F (stereo not drawn) | 10.6 |
| CCCSc1ccccc1C(=O)N1CCN(C(=O)c2ccco2)CC1 | 17 |
| N#CCN1C(=O)C(=O)N(Cc2cccc(Cl)c2)C1=O | 14.6 |
| CN1/C(=C\C=C(/C#N)C(=O)Nc2ccccc2F)C(C)(C)c2ccccc21 | -6.25 |
| Cc1ccc(S(=O)(=O)CCSc2ccc(C(F)(F)F)cn2)cc1 | 5.41 |
| Cn1c(SCC(=O)N2CCOCC2)nnc1-c1ccc(Cl)cc1Cl | 12 |
| CN(C)S(=O)(=O)c1ccc(C(=O)Nc2ccc(OCC(=O)N3CCOCC3)cc2)cc1 | 3.57 |
| Cc1noc(C)c1S(=O)(=O)Nc1ccccc1N1CCOCC1 | 6.86 |
| O=C(NCCNC(=O)c1cc(Cl)ccc1Cl)c1ccccn1 | 14.9 |
| Cc1cc(C)n2nc(CC(=O)NCc3ccccc3Cl)nc2n1 | 9.04 |
| O=C(NCCCN1CCN(c2ccc(F)cc2)CC1)C1CCCN(c2ncnc3c2nc2n3CCCCC2)C1 (stereo not drawn) | -31 |
| CCOC(=O)[C@@H]1[C@H]2COc3cc(OC)ccc3[C@@H]2N2C(=O)N(c3cccc(Cl)c3)C(=O)[C@@]12C | 17.1 |
| NC(=O)c1ccc[n+](CC(=O)OCCC23CC4CC(CC(C4)C2)C3)c1.[Cl-] | 6.55 |
| Cn1c(=NCC(O)COc2ccccc2)sc2ccccc21 (stereo not drawn) | -4.86 |
| O=C(c1ccc(-n2cncn2)c([N+](=O)[O-])c1)N1CCN(S(=O)(=O)c2cccc(F)c2)CC1 | -26.3 |
| Cc1ccc(N(C)C(=O)N2CCN(c3ccccn3)CC2)cc1 | 7.8 |
| COc1ccc(NC(=O)CN(C)C(=O)c2ccc(N3CCOCC3)c([N+](=O)[O-])c2)cc1 | -4.07 |
| CN(C)CCC[C@@]1(c2ccc(F)cc2)OCc2cc(C#N)ccc21.O=C(O)C(=O)O | -4.9 |
| CCOc1c(Br)cc(/C=C2/SC(=O)N(CC(=O)N3CCCC3)C2=O)cc1OC | 2.4 |
| CN(CC1CCCO1)S(=O)(=O)c1ccc(C(=O)NCc2ccccc2)cc1 (stereo not drawn) | 9.16 |
| CCOc1ccc(N(CC(=O)N2CCN(c3ccc(F)cc3)CC2)S(=O)(=O)c2c(C)noc2C)cc1 | 1.06 |

| SMILES | hERG current change (%, negative = inhibition) at 1uM [%] |
| --- | --- |
| COc1ccccc1CC(=O)Nc1ccc(S(=O)(=O)N2CCCCC2)cc1 | 18.4 |
| COc1ccccc1N(CC(O)CN1CCC(C)CC1)S(=O)(=O)c1ccccc1 (stereo not drawn) | 4.23 |
| O=c1c2oc3nc4c(cc3c2ncn1CCCc1ccccc1)CCCC4 | -0.796 |
| CC1(C)CC(=O)C2=C(C1)N(c1ccc(F)cc1)C(=O)NC2(C(F)(F)F)C(F)(F)F | -4.97 |
| COc1cccc(-n2c(CCn3nc(C)c([N+](=O)[O-])c3C)n[nH]c2=S)c1 | 14.3 |
| Cc1nc2sccn2c(=O)c1S(=O)(=O)Nc1cccc(Cl)c1C | -4.18 |
| CC(=O)c1ccc(N(CC(=O)NC2CCS(=O)(=O)C2)S(=O)(=O)c2ccc(Cl)cc2)cc1 (stereo not drawn) | 5.55 |
| COC/C=C/C1=CC2=CC(=O)C(C)(O)C(=O)C2=CO1 (stereo not drawn) | 14.6 |
| C=CCNC(=O)/C(C#N)=C/c1c(N2CCCCCC2)nc2ccccn2c1=O | -9.31 |
| Cc1nnsc1C(=O)NC1CCCCC1 | 9.98 |
| COc1ccc(NC(=O)N(Cc2cc3cc(OC)c(OC)cc3[nH]c2=O)CC2CCCO2)cc1 (stereo not drawn) | 9.59 |
| CC(=O)Nc1ccc(CN2CCN(Cc3ccc(C)cc3)C(CCO)C2)cc1 (stereo not drawn) | 4.84 |
| Cc1ccc(NC2=NCC(=O)N2CCc2ccccc2)cc1C | 11 |
| COc1ccc(NC(=O)c2cccc(S(=O)(=O)N3CCOCC3)c2)cn1 | 1.32 |
| CS(=O)(=O)c1ccc(CNC(=O)[C@]2(C(F)(F)F)C[C@H](CCc3ccccc3)CCCO2)cc1 | 9.75 |
| COc1ccc(C(=O)/C=C/c2cccnc2)c(OC)c1 | 15.6 |
| Cc1c(-n2cccc2C=O)cccc1[N+](=O)[O-] | 13 |
| COc1ccc(Br)cc1CNC(=O)CCC(=O)N1CCSc2ccccc21 | 4.36 |
| CCNC(=S)N(CCc1ccccc1C)Cc1cc2cc(OC)c(OC)cc2[nH]c1=O | 5.94 |
| CCOC(=O)/C=c1\s/c(=C\c2ccc(-c3ccccc3)cc2)c(=O)n1CC(=O)NCc1ccc2c(c1)OCO2 | -8.28 |
| Cc1c(N(C(=O)c2ccccn2)C2(C(=O)NC3CCCC3)CCCCC2)c(=O)n(-c2ccccc2)n1C | 11.3 |

| SMILES | hERG current change (%, negative = inhibition) at 1uM [%] |
| --- | --- |
| O=C(Oc1ccc2ccc(=O)oc2c1)c1ccc([N+](=O)[O-])cc1 | 10.8 |
| O=C(COC(=O)c1ccccc1C(=O)N1CCN(c2ccccc2)CC1)Nc1ccc(F)cc1 | -0.239 |
| Cc1ccc(N2CC(C(=O)OCC(=O)c3c(N)n(CC(C)C)c(=O)n(C)c3=O)CC2=O)cc1 (stereo not drawn) | 14.5 |
| OCC1OC(Oc2c[nH]c3ccccc23)C(O)C(O)C1O (stereo not drawn) | 25.3 |
| Cc1ccn2c(NCc3ccccc3)c(-c3cccs3)nc2c1 | 14.4 |
| CCCn1ccc2c(OCC(=O)Nc3ccc(NC(C)=O)cc3)cccc2c1=O | 10.4 |
| CCOC(=O)CNc1nc(Cl)nc(N2CCCCC2)n1 | 15.6 |
| CC1CCN(S(=O)(=O)c2ccc3c(c2)N(CC(=O)NCCCN2CCCCC2)C(=O)CS3)CC1 | 13.2 |
| COc1cccc(CNS(=O)(=O)c2ccc3c(c2)CC(C)N3C(=O)C2CCC2)c1 (stereo not drawn) | 17.1 |
| Cc1ccc2cc(CCNC(=O)CC(C)(C)C)c(=O)[nH]c2c1C | 13.7 |
| CC(C)c1nnc(NC(=O)CSc2nnc(NC(=O)c3c(F)cccc3F)s2)s1 | -2.11 |
| O=c1c(Cl)c(N2CCN(S(=O)(=O)c3ccccc3)CC2)cnn1-c1ccccc1 | 5.8 |
| CCNC(=S)N/N=C/c1ccc(OCC(=O)Nc2ccc(C)cc2)cc1 | 4.33 |
| Cc1c(C(=O)Nc2nccs2)sc2nc(-c3cccs3)cc(C(F)(F)F)c12 | 14.8 |
| Cc1ccc2[nH]c3c(c2c1)CN(C(=O)CN1c2ccc(F)cc2CCC1C)CC3 (stereo not drawn) | 8.28 |
| C[C@@H]1CCC(=O)N(CC[C@H](Sc2ccc(Br)cc2)c2ccccc2)CC1 | 14.1 |
| COc1cccc(CNC(=O)N2CCN(S(=O)(=O)c3ccc(C)cc3)CC2)c1 | 11.2 |
| NC(=O)C1(N2CCCCC2)CCN(C(=O)CSc2nc3ccccc3s2)CC1 | -10 |
| CCC(C)NC(=O)CN(c1cc(Cl)cc(Cl)c1)S(C)(=O)=O (stereo not drawn) | -2.99 |
| CC(=O)c1cccc(NC(=O)N(c2ccccc2)c2ccccc2)c1 | 6.25 |
| COc1cccc(-n2c(SCC(N)=O)nc3c([nH]c4ccccc43)c2=O)c1 | 13 |

| SMILES | hERG current change (%, negative = inhibition) at 1uM [%] |
| --- | --- |
| C=CCn1c(C)nc2c(sc3nc4c(cc32)COC(C)(C)C4)c1=O | 14.8 |
| S=C(NCCc1ccccc1)N/N=C/c1c(Cl)cccc1Cl | 10.2 |
| Cc1ccc(OCC(=O)N2CCN(S(=O)(=O)c3ccc(Cl)cc3)CC2)c([N+](=O)[O-])n1 | 0.0789 |
| O=c1oc2ccccc2c(Nc2ccccc2O)c1[N+](=O)[O-] | 6.2 |
| CCN(CC)C(c1ccc(C)cc1)c1nnnn1C1CCCCC1.Cl (stereo not drawn) | 13 |
| CCCn1cc(NC(=O)C2CC(c3cccc(Br)c3)=NO2)cn1 (stereo not drawn) | 0.0183 |
| COc1ccc(NC(=O)Cn2c3ccc(OC)cc3c3nc4n(c(=O)c32)CCS4)cc1 | 19.6 |
| O=[N+]([O-])c1ccc2[nH]c(O)c(N=NC3CS(=O)(=O)CC3O)c2c1 (stereo not drawn) | 4.42 |
| Cc1oc(-c2ccc(F)cc2)nc1CN(Cc1ccccn1)CC1CCCO1 (stereo not drawn) | -8.34 |
| CC(C)c1ccc(NC(=O)Cn2ncn3c(cc4ccccc43)c2=O)cc1 | 6.77 |
| CC(Oc1ccccc1Cl)C(=O)Nc1ccc(S(=O)(=O)N2CCCC2)cc1 (stereo not drawn) | -3.86 |
| COC(=O)C(NNc1ccccc1)(NC(=O)c1ccc(F)cc1)C(F)(F)F (stereo not drawn) | 16.1 |
| CCOc1ccc(NC(=O)C2CCCN(S(=O)(=O)c3ccc(-n4cnnn4)cc3)C2)cc1 (stereo not drawn) | 9.6 |
| C=CCn1c(N)cc(=O)nc1SCC(=O)NC(C)c1ccccc1 (stereo not drawn) | 11.6 |
| COC(=O)CCC(=O)OC1(C)C(=O)C=C2C=C(C3CC3)N(c3ccccc3)C=C2C1=O (stereo not drawn) | 3.72 |
| Cc1cc(C)c(S(=O)(=O)c2ccc(C(C)(C)C)cc2)c(Cl)n1 | 18 |
| Cc1c(C#N)c2ccccc2n1CC(=O)NCc1ccccc1 | 9.86 |
| CNC(=O)C(=O)NCC1CCCN1S(=O)(=O)c1cccs1 (stereo not drawn) | 3.16 |
| Cc1noc(C)c1C(=O)Nc1nc(-c2ccc(F)c(F)c2)cs1 | 4.6 |
| O=C(O)CCCCCNc1ccc2nsnc2c1[N+](=O)[O-] | 6.57 |
| COc1ccc(CCNC(=O)c2ccc(CS(=O)Cc3ccc(C)cc3)o2)cc1OC (stereo not drawn) | 9.19 |
